Test results reported in PubChem BioAssay AID485297 (National Center for Advancing Translational Sciences (NCATS), 2010).
The campaign covered roughly 320,000 compounds. About 9,100 (2.8%) were called active. Inconclusive results, whose numbers are uncertain, are shown with a selection of clear calls. The call rests on the fitted dose curve; in most records, active means well fitted activation curve with a large enough effect; inconclusive means small, poorly fitted or top-dose-only effect; inactive means no such curve, though single readings can be large or run the other way. No potency is given beside an inconclusive call; the fits are too rough.

Assay: qHTS Assay for Rab9 Promoter Activators; further: nearly all actives have a fitted effect of over 60% in size
Details: Huh7 Rab9 promoter-luciferase reporter, luminescence, 24 h; series mostly up to 9.22 µM
Method in brief: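 Stable Rab9-luc Huh7, 1500 cells/well, 2 h settle; cmpd in DMSO, 24 h, 37 °C/5% CO2; luciferase reagent 10 min RT; luminescence.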
Potency means the concentration at half of the fitted maximal effect; tags describe the fitted curve by direction and shape.

Row | Structure (SMILES) | Potency
1 | CCOc1ccc(C(=O)Nc2cccc(SC)c2)cc1 | inconclusive [activator, single point]
2 | O=C(OCC(=O)N1CCCc2ccccc21)c1ccccc1[N+](=O)[O-] | inconclusive [activator, partial curve]
3 | C=CCn1c(O)c(N=O)c2ccccc21 | inactive
4 | COc1ccc(NC(=O)c2ccccc2NC(=O)CSc2ccc(C)cc2)cc1 | inconclusive [activator, single point]
5 | CCN(CC)c1ccc(C(=O)NNC(=O)CCl)cc1 | inactive
6 | Cc1ccc2nsnc2c1S(=O)(=O)NCc1ccc2c(c1)OCO2 | inconclusive [activator, single point]
7 | CCOC(=O)c1[nH]c(C)c(C(=O)N2CCCC(Nc3ccc(C)c(C)c3)C2)c1C (stereo not drawn) | inactive
8 | O=C(CN1CC(=O)Nc2ccccc21)Nc1ccc(F)c(F)c1 | inconclusive [activator, single point]
9 | C=CCOc1ccccc1/C=N/NC(=O)c1ccc(Cl)cc1Cl | inconclusive [activator, single point]
10 | Cn1cnnc1SCC(=O)Nc1ccc(OCc2ccccc2)cc1 | inconclusive [activator, partial curve]
11 | Cc1ccc(/C=N/c2sc3c(c2C#N)CCC3)s1 | inconclusive [activator, single point]
12 | O=C(NC1CCCCCC1)c1c(O)c2ccccc2[nH]c1=O | inconclusive [activator, full curve, poor fit]
13 | CCc1nnc(NC(=O)CSc2ccc(-c3ccco3)nn2)s1 | inactive
14 | Cc1cc(=O)oc2cc(OCC(=O)OCC(=O)N3CCc4ccccc43)ccc12 | inconclusive [activator, single point]
15 | CC(=O)CCC(=O)N1CCC(n2nccc2NC(=O)c2ccccc2C)CC1 | inactive
16 | COc1ccc(-n2c(C)cc(/C=C3/SC(=S)N(C)C3=O)c2C)cc1 | inconclusive [activator, single point]
17 | CCSc1nnc(NC(=O)c2ccc(Br)s2)s1 | inconclusive [activator, partial curve]
18 | O=C(c1ccc2c(c1)OCO2)N1CCc2ccccc21 | inconclusive [activator, single point]
19 | C=CCc1ccc(OCc2ccc(C(=O)O)o2)c(OC)c1 | inconclusive [activator, partial curve]
20 | CCOC(=O)c1nn(-c2ccc(C)cc2)cc1O | inconclusive [activator, partial curve]
21 | O=C(c1ccc2oc(CCCc3ccccc3)nc2c1)N1CCCCC1CO (stereo not drawn) | active: 6.31 µM
22 | COc1ccc(C(=O)NNC(=S)NC(=O)/C=C/c2cccs2)cc1 | active: 3.55 µM
23 | CC(C)(C)c1ccc(C(=O)Nc2ccc(C=C(C#N)C#N)cc2)cc1 | active: 0.501 µM
24 | Cc1ccc(OCc2cc(C(=O)N3CCN(C)C[C@@H]3c3ccccc3)no2)cc1C | active: 2.51 µM
25 | Cc1ccc(NC(=O)Nc2cccc(C)n2)c(C)c1 | inconclusive [activator, single point]
26 | Oc1cccc(-c2nc3ccc4ccccc4c3c3c2CCC3)c1 | inconclusive [activator, single point]

Row | Structure (SMILES) | Potency
27 | CCOC(=O)CNC(=O)c1cccnc1Oc1ccc(Cl)cc1 | inactive
28 | CCN(C(=O)COC(=O)C1CC1C)c1c(N)n(Cc2ccccc2)c(=O)[nH]c1=O (stereo not drawn) | inactive
29 | COc1cccc(C(=O)Nc2cccc3ccccc23)c1OC | inactive
30 | O=C(CNS(=O)(=O)c1ccc2ccccc2c1)Nc1ccc(F)c(F)c1F | inactive
31 | CCN(CC(=O)Nc1ccc(OC)cc1)C(=O)CSCC(=O)Nc1cc(C)on1 | inactive
32 | CCNC(=S)NNC(=O)c1cc(-c2cccc(C)c2)nc2ccccc12 | inconclusive [activator, partial curve]
33 | Cc1ccccc1-n1c(C)cc(/C=N/Nc2ccc([N+](=O)[O-])cn2)c1C | inconclusive [activator, partial curve]
34 | Cc1c(N=Nc2ccc(N(C)C)cc2)c(=O)n(-c2ccccc2)n1C | inconclusive [activator, partial curve]
35 | O=C(COC(=O)c1cc([N+](=O)[O-])ccc1NCCO)c1ccc(Cl)cc1 | inactive
36 | O=C(NCCCN1CCOCC1)c1cc(-c2cccs2)on1 | inconclusive [activator, partial curve]
37 | Cc1ccccc1C(=O)O/N=C1\CCS(=O)(=O)c2sccc21 | inconclusive [activator, single point]
38 | COc1ccc2c(c1)/C(=N/OC(=O)c1cccs1)CCC2 | inactive
39 | O=C(CSc1ccc(-c2ccccc2)nn1)c1ccccc1 | inconclusive [activator, single point]
40 | COc1cccc(-c2nnc(-c3ccc(C)o3)o2)c1 | active: 0.708 µM
41 | CC(=O)c1cccc(NC(=O)COC(=O)[C@@H](NC(=O)OCc2ccccc2)C(C)C)c1 | inactive
42 | CCN(CC)S(=O)(=O)c1ccc(OC)c(NC(=O)CC2CCCC2)c1 | inactive
43 | O=c1oc2cc(O)ccc2c2oc3cc(O)ccc3c12 | inactive
44 | CN1C(=O)/C(=C/C=C2\SCCN2C)N(C)C1=S | active: 2.51 µM
45 | COc1ccc2c(c1OC)C(=O)N(c1nccs1)C2 | inconclusive [activator, partial curve]
46 | O=C(Nc1cccc(Cl)c1)c1cnn2cccnc12 | active: 2 µM
47 | CCOc1cc(N2CCOCC2)c(OCC)cc1NC(=O)CN1CCC(Cc2ccccc2)CC1 | inconclusive [activator, single point]
48 | COc1ccccc1-c1nc(SCc2ccccn2)n[nH]1 | inconclusive [activator, partial curve, poor fit]
49 | O=C(c1cccc(Br)c1)c1coc2ccc(O)cc12 | inconclusive [activator, single point]
50 | CN1CCN(C(=O)c2cc3sc4ccccc4c3s2)CC1 | active: 0.708 µM
51 | CCOC(=O)c1c(NC(=O)c2c(Br)cnn2CC)sc(C)c1C | inactive
52 | Cc1ccc(O)c(CNc2cccc(C)n2)c1 | inactive

Row | Structure (SMILES) | Potency
53 | Cc1ccc(NC(=O)NCC2CC2(Cl)Cl)cc1 (stereo not drawn) | active: 3.55 µM
54 | COc1ccc(NC(=O)COc2ccc(C)cc2)c([N+](=O)[O-])c1 | inconclusive [activator, partial curve]
55 | CC(C)(C)c1cnnn1-c1ccc(/C=N/Nc2ccc([N+](=O)[O-])cc2)cc1 | inconclusive [activator, single point]
56 | O=C(OCc1c(-c2ccccc2)ncc2ccccc12)c1cccc(Br)c1 | inactive
57 | COc1ccc(S(=O)(=O)N2CCc3cc(OC)c(OC)cc3C2)cc1 | inactive
58 | CSc1ccc(CNc2ccccn2)cc1 | inconclusive [activator, single point]
59 | Cc1ccc(Nc2n[nH]c(C)c2[N+](=O)[O-])cc1C | active: 1.12 µM
60 | CC1Oc2ccccc2C=C1/C=C1/SC(N2CCOCC2)=NC1=O (stereo not drawn) | inconclusive [activator, single point]
61 | O=C(COC(=O)c1cccc(NC(=O)c2ccco2)c1)c1ccc(Br)cc1 | inconclusive [activator, partial curve]
62 | Nc1ccc(-c2nc3c(Cl)c(N)ccc3[nH]2)cc1 | inconclusive [activator, partial curve]
63 | CC(=O)c1cccc(NC(=S)NC(=O)c2ccc(C)cc2Cl)c1 | inconclusive [activator, partial curve]
64 | CC(=O)Nc1ccc(SCC(=O)c2cc(C)n(Cc3cccs3)c2C)cc1 | inconclusive [activator, full curve]
65 | Nn1c(COc2ccc(Cl)cc2)nc2ccccc2c1=O | inconclusive [activator, single point]
66 | C=CC(c1ccccc1)C(C(=O)c1ccccc1)N(C)C (stereo not drawn) | inactive
67 | Cc1ccccc1-c1nc2cc(Cl)ccc2o1 | inconclusive [activator, partial curve]
68 | COCCn1c(=O)[nH]c2cc(C(=O)Nc3cccc(F)c3)ccc2c1=O | inconclusive [activator, partial curve]
69 | Cc1ccc(-c2onc3ccc(C=O)cc23)cc1 | inconclusive [activator, partial curve]
70 | COc1ccc(S(=O)(=O)N2CCOCC2)cc1NC(=O)c1c(-c2ccccc2)noc1C | inactive
71 | COc1ccc(NC(=O)CN(C)C(=O)CNC(=O)c2ccc3ccccc3c2)cc1 | inconclusive [activator, single point]
72 | c1ccc(Cc2nnc3sc(-c4ccc5c(c4)OCCO5)nn23)cc1 | inconclusive [activator, partial curve]
73 | COc1cc(C=O)ccc1OCc1ccccc1Br | inconclusive [activator, single point]
74 | COc1cccc(C(=O)Nc2ccc3c(C)cc(=O)oc3c2)c1 | active: 0.708 µM
75 | O=C(Cn1cnc2ccccc2c1=O)c1ccc(Br)cc1 | inconclusive [activator, partial curve]
76 | CC(C)Cc1nc2sc3c(=O)[nH]cnc3c2c2c1CCC2 | inactive
77 | Cc1cccc(NC(=O)c2ccc(Cl)c(S(=O)(=O)N3CCCCC3)c2)n1 | inactive
78 | CC(=O)/C(=C/c1ccccc1)C(=O)Nc1ccccc1C | inactive
